# According to publication PMC12136788:
# The other results are listed elsewhere or left out.
# T1: UNK ZnF1-3 (human, UniProt Q9C0B0 31-174)
# T1 sequence: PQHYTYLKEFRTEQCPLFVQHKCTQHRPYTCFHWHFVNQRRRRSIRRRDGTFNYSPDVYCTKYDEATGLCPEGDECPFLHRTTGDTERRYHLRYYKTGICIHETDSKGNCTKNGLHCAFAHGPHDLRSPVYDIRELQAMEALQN
# B1: chr17:60770872:60770873:+_ENSG00000011028_ENST00000303375|hu_hu|motif|central (ssRNA)
# RNA: GGGAGUUCUACAGUCCGACGAUCUUGCUUUUCUUUUUUCCUUUUUUUUUAAAAACAAUAAUGGCACAUUUAAAAAAUCAACGGCAGAGAAAGGGCCAUGUCUUCGAGUCCAUGUUCACAUUGUCCCACGCUGUCGCACCAGGACAACAGAGGAUUGAGCAUCA
# B2: chr18:9257185:9257186:+_ENSG00000101745_ENST00000400020|hu_mus|motif|central (ssRNA)
# RNA: GGGAGUUCUACAGUCCGACGAUCUUGGAAAUGUUUUAUGGGCUCACAGAUAACUGAGGGCAUACUGCAUCUUCUAAUUUCGGCAGCAGGUCUUACCUCAUUAGUAAUUAGUUUAACAUCUUCCACAGAAGAUGACCUGAGAUGCAACAGAGGAUUGAGCAUCA
# B3: chrX:71549762:71549763:+_ENSMUSG00000019087_ENSMUST00000019231|mus_mus|mus_mus_mus_hu_False|38_38 (ssRNA)
# RNA: GGGAGUUCUACAGUCCGACGAUCAAACCCGUGUACUUCUUAUUGUUAGCACAACAUCACCAGAAAACGAUAACGACAGCCAAGCAGGACAGACAGUCAAGUAGUCUUUCCACACUCCCAAACUCAGGGAGCCCUAUAACCUUACAACAGAGGAUUGAGCAUCA
# B4: 101904251_101904371_108_5pUTR_ENSMUSG00000058655_ENSMUST00000169681|mouse|control|control (ssRNA)
# RNA: GGGAGUUCUACAGUCCGACGAUCGGAGAGAGAACGCAAAGGACCCGGAUGAGGCAGUCACGUGAUUAUAGCGGGCGCGACGGGCUUGGAGACGUGAAACCAGGAGGGGGCGGGGAGCCGAGGACGGAGGCAGAAGGCGGGGCGCAACAGAGGAUUGAGCAUCA
# B5: chr5:67718940:67718941:+_ENSMUSG00000029221_ENSMUST00000113676|mus_hu|motif|central (ssRNA)
# RNA: GGGAGUUCUACAGUCCGACGAUCGUAAAAGACUCAGUAUCUUCAUGGGGACUUCGUCGUCUGAUUUUUCGAAGUUGUUCGGGAUCACUGGAUUUGAGGCAGAACUCAUUUAUCGCUCUGACUCCAGUGAUGAAAUUAUUCUGACAACAGAGGAUUGAGCAUCA
# B6: chr13:55803806:55803807:+_ENSMUSG00000045767_ENSMUST00000057844|mus_mus|FALSE|FALSE (ssRNA)
# RNA: GGGAGUUCUACAGUCCGACGAUCUAUUUGUUUUGAUAACAAUAAUAAAUAAGGCAUGUUAAAAUAUCCUUUUAAGAAAAAAGUAAAACAAACUUACUUGAAUAGCACAUCAUUUUCUGACAAAGUUUUAAUAUAGAAUAGUGACAACAGAGGAUUGAGCAUCA
# B7: chr1:150795811:150795812:-_ENSG00000143437_ENST00000358595|hu_mus|FALSE|FALSE (ssRNA)
# RNA: GGGAGUUCUACAGUCCGACGAUCCCAUUCUCGGGUCUUAGAUCGGAAUCGGAACAUGACGGACAGCACCUGACCUUUUAAUUUCACCACCUGCUGAAAGCUGUCUCUUAGAAGUUGUUGGUCUUCAGGAUGACAAAAUUCUACCAACAGAGGAUUGAGCAUCA
# B8: chr8:13019523:13019524:+_ENSMUSG00000031442_ENSMUST00000123811|mus_hu|FALSE|FALSE (ssRNA)
# RNA: GGGAGUUCUACAGUCCGACGAUCGUGAAGAAUUGAGGCCAAAGUACCACAAAAAAUGGCCACGGGAUUGAUCCCUGCUUGAAAAAAUCCUAAAACUUGUAAAAGCUAAAGAGACCCCGUGCCCCGCUCUCCUCAGGCCGUUGGCAACAGAGGAUUGAGCAUCA
# B9: chr2:216981417:216981418:+_ENSG00000079246_ENST00000392132|hu_hu|motif|central (ssRNA)
# RNA: GGGAGUUCUACAGUCCGACGAUCCUGAUACUGAUCCCCACCAGAAAGGGGAUUGUCAGUGCCAUCUGUACCAAACAGGACGGAAGCAAUCUCAUCCUUGUUCUCAGCAAACACCUGUCGCUGUACAAACAUGGUUAUCACCUUCAACAGAGGAUUGAGCAUCA
# B10: chr11:51804959:51804960:-_ENSMUSG00000020390_ENSMUST00000020657|perfect_dup|motif|central (ssRNA)
# RNA: GGGAGUUCUACAGUCCGACGAUCCAUUUUGGAUAAAAACCUAACGGUUGGUGGUUUAUUUGGAUAUUCUUCAGAAAAUUCGGUUACGGGUUUAAAAGUACCAUCUUCAAAGGGUGUCCCUUCUGGUCCAAAUAUAACUGCAUUCAACAGAGGAUUGAGCAUCA
# B11: chrX:67713009:67713010:-_ENSMUSG00000073139_ENSMUST00000101506|mus_hu|motif|central (ssRNA)
# RNA: GGGAGUUCUACAGUCCGACGAUCUAAGGAGAGCAAAAAUAGUGGCUUUAGCUACAUUUUUUACACACUGAGCAGGAAAGUCGGAACCAUCCCGUUCCCCUGUACCCCAAAGAGAACAGGGCUUGCUGGAGGCCAGUGCCAAGGCAACAGAGGAUUGAGCAUCA
# B12: chr1:58468927:58468928:-_ENSMUSG00000026034_ENSMUST00000148330|mus_mus|mus_mus_mus_hu_False|8_68 (ssRNA)
# RNA: GGGAGUUCUACAGUCCGACGAUCAAUUACUGAAAAAGAUGUUCAUUACCUUAGCUAUGUACUUAAUUUAAUAAAGCACCCAAACAAAAUAAACAUGGCAAUAUAAAAAUGUUAAGAAUUUACAAAGAUUAAAAGCUUAACUUACAACAGAGGAUUGAGCAUCA
# B13: chr7:127875444:127875445:+_ENSMUSG00000046096_ENSMUST00000060175|mus_mus|motif|central (ssRNA)
# RNA: GGGAGUUCUACAGUCCGACGAUCACGUGUGUAAAGCAUUAGAGGGAAUAUUGUAUUGCUUAAGAGUUUGGUGAAGAUCGGCGGAUACAGAUAAAAUGCGAUUUUUAUGGAAGAGCAGAACUAGUGUUGUAAAUAGCCAAAACACAACAGAGGAUUGAGCAUCA
# B14: 12196434_12199287_829_3pUTR_ENSMUSG00000039458_ENSMUST00000071993|mouse|control|control (ssRNA)
# RNA: GGGAGUUCUACAGUCCGACGAUCGGGUAAGUGGCAAAGAAAGUUGUCGUUGAUGUUUGAAACGUGAUCCUUUCUGCUGGCCUCUGUCCAGUUUUGGCUUUUCCACAUAGAGAGGGUUUCUAAGUAACGUCUGUGCUUUGGGUUCAACAGAGGAUUGAGCAUCA
# B15: chr14:22664367:22664368:+_ENSMUSG00000021771_ENSMUST00000022293|mus_hu|FALSE|FALSE (ssRNA)
# RNA: GGGAGUUCUACAGUCCGACGAUCAGAGAGUGUAAGCUUCACACCAGGCCUCAGAGUCUGAGUAUAGCCUACUCCAAUUAAGCUAGAGUUGUUGACUUUUGCAGAAAUGGAAGCAGUGGGAUCCAACUGAUAUUUAGCUGCAAUCAACAGAGGAUUGAGCAUCA
# B16: chr2:158287933:158287934:+_ENSMUSG00000027652_ENSMUST00000141497|mus_mus|motif|central (ssRNA)
# RNA: GGGAGUUCUACAGUCCGACGAUCAAGCGGUUGCUCCAGCAUUGCCAGGAUGACACUGUUAUCCAAAACAAAGUACCGGAAACGGUGCUUGUUUAUGGUUGGCAGCCUGGAGUAUUUGAUCAGAGUGGUCUCAUUCACCAGACUCAACAGAGGAUUGAGCAUCA
# B17: chr11:86991360:86991361:+_ENSMUSG00000018548_ENSMUST00000041282|mus_mus|FALSE|FALSE (ssRNA)
# RNA: GGGAGUUCUACAGUCCGACGAUCUUCUCGAAUGAUAUUUUUUGUAGGAUCAUUGCACGACUGGUGAACCAUUUCUACACGAUAUUCAUACUUGGAAGUUUCAGGCAAGCCAGCCGAUAGUUCCAAAAAUACAGAUAAAUAAUACAACAGAGGAUUGAGCAUCA
# B18: chr1:216680306:216680307:-_ENSG00000196482_ENST00000408911|hu_mus|FALSE|FALSE (ssRNA)
# RNA: GGGAGUUCUACAGUCCGACGAUCUCAGACCUUGGCCUCCAGCAUUUCCAAAAAAAGUUUGUGCAUGGGCACUUUGCCUUCGAGUUUGAUGUUGUAGAAGUGCUGGACUGCCUUGGUGGAGGUCUGCCUCAGCAGCGGCAGCGUCAACAGAGGAUUGAGCAUCA
# B19: chr4:124533079:124533080:-_ENSMUSG00000042763_ENSMUST00000064444|mus_mus|motif|central (ssRNA)
# RNA: GGGAGUUCUACAGUCCGACGAUCUCCACUGUGCUAAAGCUAGCCAGCCUAGCCAUACACUGAUGUGUCCCAGACUGACCGGGUGGUCAGCACUUAGGAGAACUGGAAGAGGAAUGUGUACUGGCAUACACCAUUUCAUACUUACAACAGAGGAUUGAGCAUCA
# B20: chr1:39494564:39494565:+_ENSG00000168653_ENST00000372967|hu_hu|hu_hu_hu_mus_True|18_88 (ssRNA)
# RNA: GGGAGUUCUACAGUCCGACGAUCAUGCAUUCGCCUCAUCGUUUUGUGCCGAAGCAAGCACUCUUCGAAGUCAUCGAACUCUAUCUUGCACUCCUUUUUCGCCCGGGUCCCACCGAUUCCAUGUGCACACUCUAUCCACUCUUUCAACAGAGGAUUGAGCAUCA
# B21: chr15:76911001:76911002:-_ENSMUSG00000033565_ENSMUST00000166610|mus_mus|motif|central (ssRNA)
# RNA: GGGAGUUCUACAGUCCGACGAUCCUCAAGAGCAUGACAAAAGAAAACACACGUUUACAUUAGAUGUUCACCGUGCCCACGGUUGUUUCCUAUUUGAAAACAGUGCAAACAGGUAACUUAUGCUUUAAACACCAAGACCCCUUCCAACAGAGGAUUGAGCAUCA
# B22: chr7:107556004:107556005:+_ENSG00000091140_ENST00000440410|hu_hu|motif|central (ssRNA)
# RNA: GGGAGUUCUACAGUCCGACGAUCGAUGCGUUGAAAGUUUUUAGAUAUCUCCAUAUCAAUUCCAACUCCACCUACAUGACCGGAAAAUUCAACUGCUGUCACAUCUGCACCAAGUCUUUGCCAAACUGAACCCAAUUCUACACCCAACAGAGGAUUGAGCAUCA
# Molecular target: T1, UNK ZnF1-3
# Experiment: nsRBNS (natural sequence RNA bind-n-seq); RBNS binding buffer (assumed for nsRBNS): 25 mM Tris pH 7.5, 150 mM KCl, 3 mM MgCl2, 0.01% Triton X-100, 500 ug/ml BSA, 20 U/ml SUPERase-In, 4 C; UNK is unkempt and MSI1 is Musashi-1; names of the RNAs are library labels; protein concentration not given here; high values mean tight binding
row,Binder,binding signal [enrichment R]
1,B1,0.902
2,B2,0.983
3,B3,1.15
4,B4,3.03
5,B5,0.452
6,B6,2.5
7,B7,1.06
8,B8,1.46
9,B9,0.656
10,B10,0.829
11,B11,0.68
12,B12,1.13
13,B13,1.7
14,B14,0.648
15,B15,1.06
16,B16,0.283
17,B17,0.843
18,B18,0.465
19,B19,0.547
20,B20,0.655
21,B21,0.948
22,B22,1.24
